Experimental data as given in PMC9527342, “An in vitro assay for enzymatic studies on human ALG13/14 heterodimeric UDP-N-acetylglucosamine transferase” (Frontiers in Cell and Developmental Biology, 2022).
No constants are given. Whether binding was seen depends on the method and setting. For some assays here: In cells and extracts the contact can be indirect. Some results given as binding are weak or reduced against the parent protein; the word gives no strength. Sequences can lack the tags named with a protein.

Tests used:
[1] = biological target: T1, 6His-ALG14 (human ALG14) (human) (UniProt Q96F25); assay: native gel or EMSA; complex co-expressed in E. coli and co-purified from the detergent extract (HisTrap HP, then anti-FLAG Affinity Matrix, FLAG peptide elution); Blue/Clear native PAGE and SDS-PAGE, silver staining; both purified
T1 sequence: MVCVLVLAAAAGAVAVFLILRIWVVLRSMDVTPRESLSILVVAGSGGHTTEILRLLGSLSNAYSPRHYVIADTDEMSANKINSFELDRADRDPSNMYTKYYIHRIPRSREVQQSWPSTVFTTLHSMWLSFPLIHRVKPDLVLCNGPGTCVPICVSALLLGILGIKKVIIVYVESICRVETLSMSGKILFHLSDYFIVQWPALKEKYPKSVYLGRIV

[2] = biological target: T1, 6His-ALG14 (human ALG14) (human); assay: co-IP; detergent extract (1% Triton X-100) of washed membranes of E. coli co-expressing FLAG-ALG13-iso2 and 6His-ALG14; precipitated with Ni-NTA His binding resin or with anti-FLAG Affinity Matrix; blotted with anti-FLAG or anti-His
[3] = biological target: T2, FLAG-ALG13-iso2 (human ALG13 isoform 2) (human) (UniProt Q9NP73); assay: as above
T2 sequence: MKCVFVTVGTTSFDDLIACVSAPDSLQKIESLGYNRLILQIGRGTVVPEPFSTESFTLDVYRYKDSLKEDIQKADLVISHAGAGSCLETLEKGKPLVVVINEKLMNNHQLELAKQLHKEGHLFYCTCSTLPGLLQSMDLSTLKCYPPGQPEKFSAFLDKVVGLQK

[4] = biological target: T3, 3HA-ALG13 iso1 (human ALG13 isoform 1) (human) (UniProt Q9NP73); assay: co-IP; HEK293 cells co-transfected with HA-tagged ALG13 isoform and FLAG-tagged ALG14; protein extract in HEPES buffer with 1% detergent; anti-HA rabbit polyclonal antibody and Protein A + G Agarose; blotted with anti-FLAG
T3 sequence: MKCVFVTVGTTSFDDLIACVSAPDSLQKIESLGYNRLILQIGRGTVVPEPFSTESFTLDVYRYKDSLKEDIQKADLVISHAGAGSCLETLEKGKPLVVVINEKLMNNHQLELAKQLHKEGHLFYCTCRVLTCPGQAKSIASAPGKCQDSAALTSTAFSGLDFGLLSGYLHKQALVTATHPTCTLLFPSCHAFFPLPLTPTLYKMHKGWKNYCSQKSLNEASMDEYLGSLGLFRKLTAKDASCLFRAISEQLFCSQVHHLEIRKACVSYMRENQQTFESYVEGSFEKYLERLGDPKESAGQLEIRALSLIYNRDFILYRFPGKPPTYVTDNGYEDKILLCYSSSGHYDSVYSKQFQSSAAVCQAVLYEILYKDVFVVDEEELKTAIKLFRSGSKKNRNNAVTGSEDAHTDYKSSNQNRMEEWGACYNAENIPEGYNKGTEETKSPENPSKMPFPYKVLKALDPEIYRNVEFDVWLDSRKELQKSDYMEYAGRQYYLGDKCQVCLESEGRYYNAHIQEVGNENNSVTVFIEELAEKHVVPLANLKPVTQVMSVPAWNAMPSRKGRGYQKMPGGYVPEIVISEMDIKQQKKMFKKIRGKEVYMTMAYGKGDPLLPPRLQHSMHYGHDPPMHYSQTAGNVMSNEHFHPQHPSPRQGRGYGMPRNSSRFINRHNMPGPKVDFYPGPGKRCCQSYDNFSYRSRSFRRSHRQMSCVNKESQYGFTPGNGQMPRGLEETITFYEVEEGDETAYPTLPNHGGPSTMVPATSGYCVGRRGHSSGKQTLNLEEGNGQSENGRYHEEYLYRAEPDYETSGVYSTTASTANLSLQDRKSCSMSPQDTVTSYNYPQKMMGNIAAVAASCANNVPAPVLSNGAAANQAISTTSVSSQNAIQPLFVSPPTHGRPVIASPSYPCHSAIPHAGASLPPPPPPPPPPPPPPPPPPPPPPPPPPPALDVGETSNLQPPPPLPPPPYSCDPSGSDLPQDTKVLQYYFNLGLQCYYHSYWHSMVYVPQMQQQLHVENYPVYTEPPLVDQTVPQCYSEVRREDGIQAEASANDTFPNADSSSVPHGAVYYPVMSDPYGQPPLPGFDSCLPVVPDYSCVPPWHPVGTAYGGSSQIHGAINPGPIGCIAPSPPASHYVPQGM

[5] = biological target: T4, 3HA-ALG13 iso2 (human ALG13 isoform 2) (human) (UniProt Q9NP73); assay: as above
T4 sequence: T2 sequence

B1: FLAG-ALG13-iso2 (human ALG13 isoform 2) (protein, UniProt Q9NP73-2 1-165)
chain: T2 sequence
- binding [1]: binds
- binding [2]: binds

B2: 6His-ALG14 (human ALG14) (protein, UniProt Q96F25 1-216)
chain: T1 sequence
- binding [3]: binds

B3: ALG14-3FLAG (human ALG14) (protein, UniProt Q96F25 1-216)
chain: T1 sequence
- binding [4]: no binding
- binding [5]: binds
